Source: the supplement of paper PMC12217912
This is one part of the list. Sequences were assembled here from the parent chain. Values near 0.05 are background.

B1: TEV protease; numbered along this chain (parent)
chain: MGESLFKGPRDYNPISSSICHLTNESDGHTTSLYGIGFGPFIITNKHLFRRNNGTLVVQSLHGVFKVKDTTTLQQHLVDGRDMIIIRMPKDFPPFPQKLKFREPQREERICLVTTNFQTKSMSSMVSDTSCTFPSGDGIFWKHWIQTKDGQCGSPLVSTRDGFIVGIHSASNFTNTNNYFTSVPKNFMELLTNQEAQQWVSGWRLNADSVLWGGHKVFMVKPEEPFQPVKEATQL

Variants of: B1
Experiment: raw area under fraction-flipped curve 0-4 h after induction (AUC4h, not background-subtracted), DNA-recorder readout of cleavage of the substrate (dimensionless); higher = more cleavage of the substrate by the protease variant
Conditions: temperature: 34 °C; time window: 0-4 h after rhamnose induction
Procedure: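 In vivo DNA recorder in E. coli TOP10(DE3) ΔrhaA at 34 °C. Each TEVp single-site mutant (parent TEVp 0) is paired with a single-site variant of the 7-mer TEVs (canonical ENLYFQ|S). The substrate sits between flexible linkers in a Bxb1-sfGFP-TEVs-SsrA fusion, so cleavage stabilises Bxb1 and speeds flipping of a recombination array, read by NGS. The value is the raw area under the fraction-flipped curve over 0-4 h after rhamnose induction (AUC4h), with ≥20 reads per time point. It is not background-subtracted; inactive controls average about 0.047.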
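Note: Bxb1 expression induced with 0.2% (w/v) L-rhamnose at OD600 near 0.5, cultures sampled hourly, flipped fraction per protease–substrate barcode pair counted by paired-end Illumina sequencing.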

Row | Variant | area with substrate ENLYFQA | area with substrate ENLYFQD | area with substrate ENLYFQG | area with substrate ENLYFQH | area with substrate ENLYFQK | area with substrate ENLYFQL | area with substrate ENLYFQM | area with substrate ENLYFQN | area with substrate ENLYFQQ | area with substrate ENLYFQR | area with substrate ENLYFQS | area with substrate ENLYFQT | area with substrate ENLYFQV | area with substrate ENLYFQC | area with substrate ENLYFQI | area with substrate ENLYFQP | area with substrate ENLYFQW | area with substrate ENLYFQY | area with substrate ENLYFQE | area with substrate ENLYFQF
1 | G162L | 0 | 0.0653 | 0.0653 | 0.0713 | 0.0504 | 0.0567 | 0.0952 | 0.0747 | 0.0642 | 0.0537 | 0.086 | 0.0566 | 0.0569 |  |  |  |  |  |  | 
2 | G162R | 0.143 |  |  |  |  | 0.0361 | 0.0945 | 0.0422 | 0.0863 |  | 0.094 | 0.0609 |  | 0.118 | 0.0546 | 0.0534 | 0.0503 | 0.0645 |  | 
3 | F163I | 0.058 | 0.0666 | 0.141 |  | 0.0797 | 0.0608 |  |  |  | 0.0644 | 0.0855 | 0.0567 | 0.059 | 0.054 | 0.0374 |  |  | 0.0784 | 0.0674 | 0.0513
4 | I164G | 0.0537 |  |  | 0.0493 | 0.0508 | 0.0521 |  | 0.0549 |  | 0.045 | 0.0517 |  |  |  | 0.0649 | 0.0466 | 0.0648 | 0.054 |  | 0.0581
5 | V165P | 0.0305 | 0.0546 | 0.0843 |  | 0.0487 |  |  | 0.0455 | 0.0439 |  | 0.0533 | 0.0585 | 0.049 | 0.0683 |  | 0.0548 | 0.0386 |  |  | 
6 | G166F | 0.0467 |  | 0.0621 |  |  | 0.0538 | 0.0388 | 0.058 | 0.0435 | 0.0359 | 0.0495 | 0.0485 | 0.0569 | 0.047 | 0.0363 | 0.0456 | 0.0531 | 0.0491 |  | 
7 | I167V | 0.0965 |  | 0.101 |  |  | 0.057 | 0.072 |  |  | 0.0643 | 0.0941 | 0.0561 |  | 0.0911 | 0.0592 | 0.0503 | 0.0588 | 0.0739 |  | 
8 | S169I | 0.0645 |  |  | 0.056 | 0.0677 | 0.0646 | 0.0548 | 0.0509 |  | 0.047 | 0.0605 | 0.0675 | 0.0568 | 0.0506 | 0.0574 | 0.062 | 0.0449 | 0.0444 | 0.0688 | 0.0819
9 | A170Y | 0.0565 |  | 0.0739 |  | 0.0692 |  | 0.0515 |  |  |  | 0.0563 |  |  | 0.0409 |  |  |  |  |  | 
10 | S171H | 0.0451 |  | 0.0629 | 0.0567 | 0.0604 | 0.0583 | 0.0558 | 0.0607 |  | 0.0611 | 0.0663 | 0.0538 | 0.0509 | 0.0695 | 0.0555 |  | 0.0686 |  | 0.0699 | 0.0481
11 | F173E | 0.0744 |  |  | 0.0727 |  |  | 0.0717 | 0.0213 |  | 0.0371 | 0.104 |  | 0.0639 | 0.13 | 0.0439 |  |  |  |  | 0.0486
12 | T174S | 0.0702 |  |  | 0.0759 |  |  | 0.0937 |  |  | 0.0517 | 0.0983 | 0.0721 |  |  | 0.0576 |  |  | 0.0618 |  | 
13 | N175G | 0.107 |  | 0.11 | 0.0792 | 0.0641 | 0.0623 |  | 0.0642 |  | 0.0371 | 0.102 |  | 0.0566 |  |  |  | 0.0541 | 0.0683 |  | 
14 | N177C | 0.207 | 0.0857 | 0.15 |  |  |  | 0.11 | 0.107 | 0.086 | 0.067 | 0.151 |  | 0.0625 | 0.178 |  |  | 0.0835 |  |  | 
15 | N177I | 0.139 | 0.076 |  | 0.0783 |  | 0.0612 | 0.0892 |  |  |  | 0.145 |  |  |  |  |  | 0.0774 | 0.113 |  | 
